The other results are listed elsewhere or left out.
Tested on: S. aureus RN4220
Assay: growth inhibition call (relative growth <= 0.2)
Details: 50 µM

Growth inhibition call, inactive:
C[C@@H]1CCCCO[C@H](CN(C)C(=O)NC2CCCCC2)[C@H](C)CN([C@H](C)CO)C(=O)c2cc(NC(=O)c3ccncc3)ccc2O1
CC(=O)N1[C@@H]2c3cccc(=O)n3C[C@@H]2[C@@H](CO)[C@@H]1C(=O)N1CCc2ccccc2C1
Cc1cc(C(=O)Nc2cccc3c2O[C@@H](CN(C)Cc2ccccc2)[C@H](C)CN([C@H](C)CO)C3=O)n(C)n1
Cc1ccc(S(=O)(=O)N(C)C[C@H]2Oc3ccc(NC(=O)C4CC4)cc3C(=O)N([C@H](C)CO)C[C@H]2C)cc1
C[C@H]1CN([C@@H](C)CO)C(=O)c2cc(NC(=O)Nc3cccc4ccccc34)ccc2O[C@H]1CN(C)C(=O)Nc1ccccc1
C[C@H]1CN([C@@H](C)CO)S(=O)(=O)c2ccc(C#CC3(O)CCCC3)cc2O[C@H]1CN(C)C(=O)c1cccnc1
CO[C@@H]1[C@@H](O[C@@H]2O[C@H](C)[C@@H](O[C@H]3C[C@@](C)(O)[C@@H](OC(=O)CC(C)C)[C@H](C)O3)[C@H](N(C)C)[C@H]2O)[C@@H](CC=O)C[C@@H](C)[C@@H](O)/C=C/C=C/CC(C)OC(=O)C[C@H]1OC(C)=O (some centres undefined)
COc1ccc(C#Cc2ccc3c(c2)O[C@H](CN(C)C(=O)CN2CCOCC2)[C@H](C)CN([C@H](C)CO)S3(=O)=O)cc1
C[C@H]1CN([C@@H](C)CO)C(=O)c2cc(NS(=O)(=O)c3cn(C)cn3)ccc2O[C@@H]1CN(C)Cc1ccccc1
CC(C)NC(=O)N(C)C[C@H]1Oc2c(NS(=O)(=O)c3ccc(Cl)cc3)cccc2C(=O)N([C@H](C)CO)C[C@@H]1C
O=C(C[C@H]1CC[C@@H]2[C@H](COC[C@H](O)CN2C(=O)c2cnccn2)O1)NCc1ccc(Oc2ccccc2)cc1
COc1cccc(S(=O)(=O)N(C)C[C@H]2Oc3ncc(Br)cc3C(=O)N([C@H](C)CO)C[C@H]2C)c1
Cc1noc(C)c1NC(=O)N(C)C[C@H]1OCCCC[C@@H](C)Oc2ccc(NS(=O)(=O)c3ccc(F)cc3)cc2C(=O)N([C@@H](C)CO)C[C@@H]1C
C[C@H](CO)N1C[C@H](C)[C@@H](CN(C)CC2CC2)Oc2ccc(NS(=O)(=O)c3cn(C)cn3)cc2CC1=O
O=C(C[C@@H]1CC[C@H]2[C@@H](COC[C@@H](O)CN2C(=O)Nc2ccc(F)cc2)O1)NCCCN1CCOCC1
C[C@H](CO)N1C[C@H](C)[C@@H](CN(C)S(C)(=O)=O)OCCCC[C@H](C)Oc2ccc(NS(=O)(=O)c3ccc(F)cc3)cc2C1=O
Cc1ccc(S(=O)(=O)N(C)C[C@@H]2OCCCC[C@@H](C)Oc3ccc(NC(=O)C4CCCCC4)cc3C(=O)N([C@H](C)CO)C[C@H]2C)cc1
COc1ccc2c3c(n(c2c1)C)[C@H](CO)N(Cc1cc(cc(c1)OC)OC)C[C@]13CCN(CC1)C(=O)Nc1cccc(c1)F
COc1ccc(S(=O)(=O)Nc2ccc3c(c2)CC(=O)N([C@@H](C)CO)C[C@H](C)[C@H](CN(C)Cc2ccc(-c4ccccc4)cc2)O3)cc1
CCCN(C)C[C@H]1OCCCC[C@@H](C)Oc2ccc(NS(=O)(=O)c3ccc(Cl)cc3)cc2C(=O)N([C@@H](C)CO)C[C@H]1C
COc1ccc(NC(=O)N(C)C[C@@H]2Oc3ccc(NS(=O)(=O)c4cn(C)cn4)cc3C(=O)N([C@@H](C)CO)C[C@@H]2C)cc1
COCC(=O)N[C@@H]1C[C@H](CO)[C@H](O)C1
CC(C)CC#Cc1cnc2c(c1)C(=O)N([C@H](C)CO)C[C@@H](C)[C@H](CN(C)S(=O)(=O)c1cccs1)O2
COc1ccc2c3c([nH]c2c1)[C@@H](CO)N(C[C@]13CN(Cc2cc(on2)-c2ccccc2)C1)C(=O)Nc1ccc(cc1)F
CC(C)C[C@H]1CC(=O)N=C(N)N1
COCCNC(=O)NC(=O)COC(=O)c1cccn1C
O=C(CCO[C@@H]1O[C@H](CO)[C@@H](O)[C@H](O)[C@H]1O)c1ccc(O)cc1
Cc1ccc(S(=O)(=O)Nc2ccc3c(c2)C(=O)N([C@@H](C)CO)C[C@@H](C)[C@@H](CN(C)C(=O)CCC(F)(F)F)OCCCC[C@H](C)O3)cc1
C[C@H]1CN([C@@H](C)CO)C(=O)Cc2cc(NC(=O)CCCCCC(=O)Nc3ccccc3N)ccc2O[C@H]1CN(C)S(=O)(=O)c1cn(C)cn1

From the antibiotic and cytotoxicity screens of Wong et al. (2023)
